According to article PMC6919601, “Identification of Plasmodium dipeptidyl aminopeptidase allosteric inhibitors by high throughput screening” (PLoS ONE, 2019):
Screen size: about 110,000 compounds; about 230 (0.21%) showed an effect of 50% or more. The list shows a part of the results.

biological target: DPAP1 (Plasmodium falciparum, UniProt Q8IIJ9); assay: primary screen, percent inhibition; read by cleavage of a fluorogenic dipeptide substrate; higher = more effect of the substance; design: species or system P. falciparum D10 trophozoite lysates; single well
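Also: 30 min substrate incubation versus DMSO and 10 µM JCP410 controls.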

Sequence of DPAP1 (Q8IIJ9 whole entry, looked up): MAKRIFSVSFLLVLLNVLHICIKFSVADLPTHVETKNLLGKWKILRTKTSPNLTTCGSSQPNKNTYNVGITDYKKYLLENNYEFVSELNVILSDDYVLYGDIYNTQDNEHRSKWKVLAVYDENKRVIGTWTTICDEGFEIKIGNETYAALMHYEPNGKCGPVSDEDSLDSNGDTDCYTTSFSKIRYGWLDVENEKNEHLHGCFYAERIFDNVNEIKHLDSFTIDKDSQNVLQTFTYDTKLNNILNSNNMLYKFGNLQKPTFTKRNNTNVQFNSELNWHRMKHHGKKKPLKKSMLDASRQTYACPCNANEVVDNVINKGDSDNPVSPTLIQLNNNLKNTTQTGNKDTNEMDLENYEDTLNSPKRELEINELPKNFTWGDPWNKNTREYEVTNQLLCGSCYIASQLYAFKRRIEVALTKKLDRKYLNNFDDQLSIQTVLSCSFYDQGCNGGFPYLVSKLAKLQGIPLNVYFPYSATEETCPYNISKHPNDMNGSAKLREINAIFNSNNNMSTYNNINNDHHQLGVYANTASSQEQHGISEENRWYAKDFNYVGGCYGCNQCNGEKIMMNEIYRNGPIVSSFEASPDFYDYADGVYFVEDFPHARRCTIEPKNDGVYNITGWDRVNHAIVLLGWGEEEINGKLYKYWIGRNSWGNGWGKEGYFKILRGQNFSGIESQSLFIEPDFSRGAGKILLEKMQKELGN

Row | Structure (SMILES) | % Inhibition @ 10 uM
1 | O=C(NCc1ccc(F)cc1)C1CCCN(S(=O)(=O)c2cccc3nonc23)C1 (stereo not shown) | 2.35%
2 | Cn1c(NCc2ccccc2)cc(=O)n(C)c1=O | 13.2%
3 | CC1CCCN(C(=O)c2ccc3c(c2)sc2nc(-c4ccc(F)cc4)cn23)C1 (stereo not shown) | -5.15%
4 | CCOc1ccc(/C=C/c2nc(C#N)c(N3CCN(Cc4ccccc4)CC3)o2)cc1 | -6.29%
5 | CC(=O)c1nc(C)c(O)c(O)c1C | -7.35%
6 | c1ccc(CN2CCN(Cc3c[nH]c4ccccc34)CC2)cc1 | -2.56%
7 | COc1ccc(-c2cc(C(F)(F)F)n3nc(C(=O)NCc4cnn(C)c4C)c(Cl)c3n2)cc1 | 2.45%
8 | CN(CCc1ccccn1)Cc1cccc(Br)c1 | 5.06%
9 | CCOC(=O)N1CCN(S(=O)(=O)c2cc(Br)ccc2OC)CC1 | -0.251%
10 | O=C(Nc1ccc(S(=O)(=O)Nc2nccs2)cc1)c1ccc2c(c1)OCO2 | 7.82%
11 | O=C(CSc1nc2ccccc2nc1N1CCCCC1)NCc1ccc2c(c1)OCO2 | -0.183%
12 | COc1cc(C(c2c(C)n(C)n(-c3ccccc3)c2=O)c2c(C)n(C)n(-c3ccccc3)c2=O)cc(OC)c1OC | -4.58%
13 | O=S(=O)(NCc1ccc2c(c1)OCO2)c1c[nH]cn1 | 1.23%
14 | CC(C)C(NC(=O)CN(c1ccccc1F)S(=O)(=O)c1ccccc1)C(C)C | -2.83%
15 | COc1ccc(N(CC(=O)Nc2ccccc2C)S(=O)(=O)c2ccccc2)cc1OC | -15.2%
16 | O=C(Nc1cccc2ccccc12)OC[C@@H]1CCCN2CCCC[C@H]12 | -1.32%
17 | Cc1cc(C)c2ccc(Cl)cc2n1 | 2.62%
18 | COc1ccc(CN2CCN(c3ccc(F)cc3)CC2)cc1C | 3%
19 | CCOC(=O)c1ccccc1NC(=O)c1ccc(Cl)c(Cl)c1 | -0.116%
20 | COc1ccc(C2C(C#N)=C(N)OC3=C2C(=O)CCC3)c(C)c1C (stereo not shown) | -0.261%
21 | Cc1cccc(OCC(=O)Nc2ccc(S(=O)(=O)N3CCc4ccccc43)cc2)c1 | 3.17%
22 | CC(=O)c1ccc(N2CCN(Cc3cccc(Cl)c3Cl)CC2)cc1 | 0.273%
23 | N#CCNC(=O)C1CCCCN1c1cccc(-c2cccc(N3CCC(N4CCOCC4)CC3)c2)c1 (stereo not shown) | -4.72%
24 | CCc1nn(CC(=O)N2CCC(Cc3ccccc3)CC2)c(=O)c2cc3sccc3n12 | 3.4%
25 | CC(C(NC(=O)OCc1ccccc1)C(=O)NCC#N)C(F)(F)F (stereo not shown) | -8.82%

Row | Structure (SMILES) | % Inhibition @ 10 uM
26 | Cn1cc(NC(=O)NCc2cccnc2)c2ccccc2c1=O | 2.25%
27 | O=C1C=C(NCCN2CCOCC2)CC(c2ccccc2)C1 (stereo not shown) | 1.26%
28 | CCN(CC)C(=O)C1CCCN(Cc2ccc3ccccc3c2)C1 (stereo not shown) | -0.0404%
29 | CN(C)CCNC(=O)c1cc2ccccc2[nH]1 | -9.34%
30 | Cc1[nH]c2ccccc2c1C(=O)C(=O)N1CC2CC(C1)c1cccc(=O)n1C2 (stereo not shown) | -3.44%
31 | Cc1nc2nc(-c3ccc(Cl)cc3Cl)nn2c(C)c1CCC(=O)N1CCCC1 | -0.72%
32 | CC(Oc1ccccc1)C(=O)NC1CCCCC1 (stereo not shown) | 5.66%
33 | CCOc1cc(C(=O)Nc2nn3c(C)nnc3s2)cc(OCC)c1OCC | -5.66%
34 | O=C(NC(Nc1ccc(Br)cc1)C(=O)c1ccccc1)c1ccccc1 (stereo not shown) | 4.89%
35 | N=C1/C(=C\c2ccc(OCc3ccc4c(c3)OCO4)cc2)C(=O)N=C2SC(N3CCCC3)=NN12 | -3.44%
36 | Cc1ccc(-n2c(SCCC(=O)O)nc3c(cnn3-c3ccccc3)c2=O)cc1 | 1.43%
37 | Cc1c(C(=O)O)[nH]c2c1C(=O)CC(c1ccccc1Cl)C2 (stereo not shown) | -3.21%
38 | CCOC(=O)Nc1cc(C2CC2)nc2ccc(Br)cc12 | -5.11%
39 | O=C(NCc1ccccn1)C1CCN(Cc2cnn(-c3ccccc3)c2-n2cccc2)CC1 | 5.42%
40 | CCn1cc(/C=C(\NC(=O)c2ccco2)C(=O)NCCCn2ccnc2)c2ccccc21 | -1.74%
41 | Cc1ccc(Cl)cc1-n1ncc2c(NCC3CCCO3)ncnc21 (stereo not shown) | 6.29%
42 | CCOc1cc2c(cc1OCC)C1C(C(=O)NCCN3CCOCC3)c3ccccc3C(=O)N1CC2 (stereo not shown) | -4.03%
43 | CCOc1ccccc1CN1CCN(c2ccc([N+](=O)[O-])cc2)CC1 | -3.72%
44 | N#CCCN(Cc1ccccc1)C(CO)CC(=O)NCc1ccccc1 (stereo not shown) | -0.415%
45 | O=[N+]([O-])c1ccc(N2CCCC2)c(OCCO)c1 | -0.546%
46 | CN(C)CC(=O)Nc1c2c(nc3c1CCC3)CCCC2 | -2.8%
47 | COc1cccc(C(=O)Nc2c(-c3ccc(F)cc3)nc3ccccn23)c1OC | -4.23%
48 | Brc1ccc(CN2CCCCCC2)o1 | -0.261%
49 | O=c1c(NCCCc2ccccc2)c(-c2ccccc2)c1=O | -1.69%
50 | C=CCNC(=O)Nc1cnc2c(C)cccc2c1O | 5.2%

Row | Structure (SMILES) | % Inhibition @ 10 uM
51 | CC1CCc2c(nc3ccccc3c2C(=O)O)C1 (stereo not shown) | -2.98%
52 | COc1cc(CN2CCC(O)CC2)cc2c1OCO2 | 5.03%
53 | CN1CC[C@@]2(O)CCCC[C@@H]2[C@H]1c1ccc(Cl)c(Cl)c1 | 4.26%
54 | Fc1ccccc1N1CCN(CC2CCCCC2)CC1 | -0.446%
55 | O=C(C1=C(O)C(=O)N(CCN2CCNCC2)C1c1ccccc1)c1ccccc1 (stereo not shown) | 2.69%
56 | N#CCNC(=O)[C@H](Cc1cc(Cl)c(O)c(Cl)c1)NC(=O)c1cc(F)cc(F)c1 | -4.72%
57 | Cc1ccc(OCC(=O)Nc2cccc3cccnc23)cc1 | -1.61%
58 | COc1ccc(OCC(NS(=O)(=O)c2ccc(-n3cnnn3)cc2)C(C)C)cc1 (stereo not shown) | 3.88%
59 | O=S(=O)(Nc1ccc2c(c1)OCCO2)c1ccccc1 | 4.31%
60 | COC(=O)c1c(NC(=O)COc2ccccc2C(C)(C)C)sc2c1CCCC2 | -2.6%
61 | C#CC(C)(CC)NC(=O)Cn1nnc(-c2ccc(OC)cc2)n1 (stereo not shown) | -2.19%
62 | NC(=O)C1CCCN(Cc2ccc(Cl)c(Cl)c2)C1 (stereo not shown) | -4.75%
63 | NS(=O)(=O)c1ccc(CCNC(=O)C2CCN(S(=O)(=O)c3cccs3)CC2)cc1 | 4.5%
64 | COc1ccc(C(C)(C)C)cc1NC(=O)c1ccc(C)s1 | 7.55%
65 | CCOC(=O)N1CCN(C(=O)COCc2cc(-c3cccs3)on2)CC1 | -1.04%
66 | Cc1ccc(C2CC(C(F)(F)F)n3nc(C(=O)NCc4cn(C)nc4C)cc3N2)cc1 (stereo not shown) | 3.94%
67 | COc1cccc(OC)c1C(=O)Nc1ccc(C)c(C)c1 | 1.83%
68 | COc1ccc(S(=O)(=O)/N=C2\C=C(Br)C(=O)c3ccccc32)cc1 | 5.12%
69 | Sc1nc2ccccc2c2nc(COc3ccc(Cl)cc3)nn12 | 1.41%
70 | CCOC(=O)c1oc2cccc(O)c2c1CN(Cc1ccccc1)C(C)=O | 5%
71 | CCOC(=O)C1=C(O)/C(=C\c2ccc(OCC(=O)NC(C)c3ccccc3)cc2)N=C1C (stereo not shown) | 0.131%
72 | COCCNC(=O)Cn1cc2c(n1)CCCCC2 | 0.137%
73 | COCCNC(=O)c1c(NC(=O)c2ccc(Cl)cc2Cl)sc2c1CCCC2 | 2.49%
74 | COc1ccc(COC(=O)C2=C(C)NC(=O)NC2c2ccc3c(c2)OCO3)cc1 (stereo not shown) | -6.46%
75 | O=C(COc1ccccc1)Nc1cccnc1 | -4.86%

Row | Structure (SMILES) | % Inhibition @ 10 uM
76 | CC(=O)Nc1ccc(S(=O)(=O)Nc2ccccc2C(=O)Nc2ccccc2)cc1 | -1.59%
77 | O=C(/C=C/c1ccnc2ccccc12)c1cccs1 | -0.339%
78 | COc1cc(C2C(C#N)=C(N)OC3=C2C(=O)CC(C)(C)C3)ccc1O (stereo not shown) | 1.13%
79 | Cc1ccc(CNC(=O)C2CCN(S(=O)(=O)c3ccc(Br)s3)CC2)cc1 | -7.27%
80 | CCOc1ccc(S(=O)(=O)N(CC(=O)Nc2cccc(Br)c2)c2ccccc2)cc1 | -2.38%
81 | COc1ccc2nc(NS(=O)(=O)c3ccccc3)sc2c1 | 17.6%
82 | CCOC(=O)N1CCC(NC(=O)C2CCCN(C(=O)c3cc4sccc4n3C)C2)CC1 (stereo not shown) | -8.2%
83 | COC(=O)c1cc(-c2ccccc2)sc1NC(=O)CSc1nnc2ccccn12 | -3.41%
84 | O=C(COc1ccccc1)N(Cc1cccs1)C1CCS(=O)(=O)C1 (stereo not shown) | 2.1%
85 | N#Cc1cc(-c2ccccc2)nn1-c1ccccc1 | -2.18%
86 | O=C(NC1CC1)c1cc(-c2ccccc2)[nH]n1 | -3.1%
87 | Cc1ccccc1N1C(=O)C2C3CCC(O3)C2C1=O (stereo not shown) | 1.72%
88 | Cn1c(=O)c2c(nc3n(Cc4ccccc4)c(-c4cccs4)cn23)n(C)c1=O | -2.77%
89 | O=C(O)c1cccc(C(=O)O)c1N(c1ccccc1)c1ccccc1 | 4.74%
90 | Nc1c(C(=O)Nc2nccs2)sc2nc3c(c(-c4ccccc4Cl)c12)CCCC3 | -0.458%
91 | CC(C)N1C(=O)/C(=C\c2ccncc2)S/C1=N/c1ccccc1 | -2.09%
92 | COc1cc(S(=O)(=O)NCC2COCCO2)ccc1-n1cnnn1 (stereo not shown) | -2.84%
93 | COc1ccc(NS(=O)(=O)c2ccc(NC(=S)NC(=O)/C=C/c3ccco3)cc2)nn1 | -8.3%
94 | CC(C)CCNC(=O)CCc1nc2cccnc2n1-c1ccccc1 | -8.68%
95 | Cc1cc(C)c(C)c(OCC(=O)NC2CCCC2)c1 | 2.43%
96 | C/N=c1\c(NS(=O)(=O)c2ccc3c(c2)CCCC3)c(O)oc2ccccc12 | -2.78%
97 | Cc1nn(-c2ccccc2)c(-n2cccc2)c1C(=O)NCc1ccc2c(c1)OCO2 | 6.27%
98 | Cc1nc2cccnc2n1-c1ccc(CC(=O)N2CCN(c3ccccn3)CC2)cc1 | -0.943%
99 | CC(C)(C)N(CCNS(=O)(=O)c1ccc(-c2cc(C(F)(F)F)no2)s1)Cc1ccco1 | -3.79%
100 | CC(C)(C)c1ccc(C(=O)NC2CCS(=O)(=O)C2)cc1 (stereo not shown) | 0.214%
